Test results reported in PMC3317646, “Interaction of Chandipura Virus N and P Proteins: Identification of Two Mutually Exclusive Domains of N Involved in Interaction with P” (PLoS ONE, 2012).
No constants are given. Whether binding was seen depends on the method and setting. For some assays here: Binding seen in cells or lysates may run through a third protein. Some binding calls cover weakened binding; strength is not graded here. For some assays here: Sequences can lack the tags named with a protein.

Sequences of proteins named here, by UniProt entry; tags and fusion partners are left off. A change or cut given only in a name is not applied to a line headed by its entry. Residues count along the entry.
UniProt P11211: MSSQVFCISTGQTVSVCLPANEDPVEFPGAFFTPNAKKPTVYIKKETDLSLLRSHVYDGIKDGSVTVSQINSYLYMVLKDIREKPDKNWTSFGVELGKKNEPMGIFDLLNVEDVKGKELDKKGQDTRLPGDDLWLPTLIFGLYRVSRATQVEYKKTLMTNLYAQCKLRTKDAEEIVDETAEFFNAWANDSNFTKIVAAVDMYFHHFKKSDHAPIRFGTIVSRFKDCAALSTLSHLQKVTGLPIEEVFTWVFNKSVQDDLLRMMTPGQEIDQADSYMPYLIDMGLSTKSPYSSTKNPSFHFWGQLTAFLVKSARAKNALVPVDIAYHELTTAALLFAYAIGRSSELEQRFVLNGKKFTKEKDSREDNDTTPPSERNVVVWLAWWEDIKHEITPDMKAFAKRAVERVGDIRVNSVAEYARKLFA
UniProt P02769, residues 25-607: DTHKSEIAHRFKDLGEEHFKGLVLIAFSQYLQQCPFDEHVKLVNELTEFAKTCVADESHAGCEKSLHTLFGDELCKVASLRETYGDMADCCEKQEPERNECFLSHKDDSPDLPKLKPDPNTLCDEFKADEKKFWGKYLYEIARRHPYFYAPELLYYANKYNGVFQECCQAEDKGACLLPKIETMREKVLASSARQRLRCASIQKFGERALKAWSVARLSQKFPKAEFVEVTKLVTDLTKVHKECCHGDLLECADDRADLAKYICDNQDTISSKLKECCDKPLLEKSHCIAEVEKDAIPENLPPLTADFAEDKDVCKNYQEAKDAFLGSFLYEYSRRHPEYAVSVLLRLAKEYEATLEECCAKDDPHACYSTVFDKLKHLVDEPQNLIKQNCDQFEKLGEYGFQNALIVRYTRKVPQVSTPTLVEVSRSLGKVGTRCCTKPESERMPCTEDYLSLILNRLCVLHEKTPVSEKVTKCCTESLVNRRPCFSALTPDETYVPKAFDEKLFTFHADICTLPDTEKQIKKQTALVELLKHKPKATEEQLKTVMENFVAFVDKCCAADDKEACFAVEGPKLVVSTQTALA

Columns and labels:
[1] = biological target: T1, N-terminal six histidine tagged P protein of Chandipura virus (His-P) (Chandipura virus) (UniProt P16380); experiment: pull-down; His-tag co-elution: N proteins not treated with DOC incubated with 6×His-P in 50 mM Tris-Cl pH 8, 100 mM NaCl, 0.1% Triton X-100, 10 mM imidazole, 30 min at 4°C; bound to Ni-NTA agarose, eluted with 250 mM imidazole; both purified
T1 sequence: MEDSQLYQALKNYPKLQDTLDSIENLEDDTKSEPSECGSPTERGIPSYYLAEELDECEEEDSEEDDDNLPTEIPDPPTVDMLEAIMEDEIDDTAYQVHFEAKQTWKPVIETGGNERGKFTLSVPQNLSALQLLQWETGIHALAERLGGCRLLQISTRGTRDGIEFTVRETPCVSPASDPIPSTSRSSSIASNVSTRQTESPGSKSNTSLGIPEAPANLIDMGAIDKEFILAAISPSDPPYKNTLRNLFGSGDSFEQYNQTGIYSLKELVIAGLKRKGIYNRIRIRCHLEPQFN

[2] = biological target: T2, Chandipura virus P protein, wild-type, untagged, in Vero-76 cells (Chandipura virus) (UniProt P16380); experiment: co-IP; Vero-76 cells co-transfected with 2 µg of each plasmid, labelled with 35S methionine/cysteine 24 h after transfection; lysates precipitated with polyclonal anti-P antibody and Protein-A Sepharose; autoradiography
T2 sequence: T1 sequence

[3] = biological target: T1, N-terminal six histidine tagged P protein of Chandipura virus (His-P) (Chandipura virus); experiment: condition: only without DOC pre-treatment (self-associated form); pull-down; His-tag co-elution: N proteins not treated with DOC incubated with 6×His-P in 50 mM Tris-Cl pH 8, 100 mM NaCl, 0.1% Triton X-100, 10 mM imidazole, 30 min at 4°C; bound to Ni-NTA agarose, eluted with 250 mM imidazole; both purified
[4] = biological target: T3, Chandipura virus phosphoprotein (P), wild-type, untagged, bacterially expressed (Chandipura virus) (UniProt P16380); experiment: condition: only without DOC pre-treatment (oligomeric N(1–320)); SEC; equimolar N (or N(1–320)) and P incubated 30 min at 4°C in 100 mM NaCl TET buffer, no DOC treatment (N oligomeric); S-200 (10/300); ratio by densitometry of bands; both purified
T3 sequence: T1 sequence

[5] = biological target: N(1–320), bacterially expressed (Chandipura virus) (UniProt P11211); experiment: SEC; N(1–320) treated with DOC and DOC removed without P, compared with the untreated sample; data not shown; both purified
[6] = biological target: N(48–422), bacterially expressed (Chandipura virus) (UniProt P11211); experiment: SEC; each purified protein alone on Superdex-200 / S-200 (10/300), 100 mM NaCl TET buffer; oligomerization status from the elution volume; both purified
[7] = biological target: N(180–422), bacterially expressed (Chandipura virus) (UniProt P11211); experiment: as above
[8] = biological target: T2, Chandipura virus P protein, wild-type, untagged, in Vero-76 cells (Chandipura virus); experiment: co-sedimentation; 10–60% sucrose step gradient, 16 h at 32000 rpm, 4°C, of the soluble fraction of Vero-76 cells co-transfected 1∶1 with GFP-N and P; fractions blotted with N and P antibodies
[9] = biological target: N-terminal EGFP tagged wild-type N of Chandipura virus (GFP-N), in Vero-76 cells (Chandipura virus) (UniProt P11211); experiment: as above

How did the binding [1] turn out when “Bovine Serum Albumin (from UniProt P02769 25-607)” was run?
The binding was “no binding”.

How did the binding [2] turn out when “GFP-N(1–220), in Vero-76 cells (from UniProt P11211 1-220) (domain or fragment)” was run?
Its binding is “binds”.

Which binding [2] does the source give for “GFP-N(1–320), in Vero-76 cells (from UniProt P11211 1-320) (domain or fragment)” here?
Its binding is “binds”.

For “GFP-N(1–390), in Vero-76 cells (from UniProt P11211 1-390) (domain or fragment)”, which binding [2] is on record?
The binding was “binds”.

How did the binding [2] turn out when “GFP-N(22–422), in Vero-76 cells (from UniProt P11211 22-422) (domain or fragment)” was run?
Its binding is “binds”.

How did the binding [2] turn out when “GFP-N(48–422), in Vero-76 cells (from UniProt P11211 48-422) (domain or fragment)” was run?
Its binding is “binds”.

“GFP-N(180–422), in Vero-76 cells (from UniProt P11211 180-422) (domain or fragment)” was tested. Which binding [2] did it give?
The binding was “no binding”.

For “N(1–220), bacterially expressed (from UniProt P11211 1-220) (domain or fragment)”, which binding [3] is on record?
The binding was “no binding”.

Which binding [4] does the source give for “N(1–320), bacterially expressed (from UniProt P11211 1-320) (domain or fragment)” here?
Its binding is “no binding”.

And the binding [3]?
The binding was “no binding”.

And the binding [5]?
The binding was “binds”.

Which binding [6] does the source give for “N(48–422), bacterially expressed (from UniProt P11211 48-422) (domain or fragment)” here?
Its binding is “no binding”.

Which binding [7] does the source give for “N(180–422), bacterially expressed (from UniProt P11211 180-422) (domain or fragment)” here?
The binding was “no binding”.

And the binding [1]?
The binding was “no binding”.

What does the source list for “N-terminal EGFP tagged wild-type N of Chandipura virus (GFP-N), in Vero-76 cells (from UniProt P11211 1-422)”?
binding [8]: binds; binding [9]: binds; binding [2]: binds
